Measured values from PubChem BioAssay AID1963576 (National Center for Advancing Translational Sciences (NCATS), 2024).
In all, about 46,000 compounds went through this assay and about 60 (0.1%) were called active. Roughly 3% stayed inconclusive and do not appear here. The call rests on the fitted dose curve; in most records, active means well fitted inhibition curve with a large enough effect; inconclusive means small, poorly fitted or top-dose-only effect; inactive means no such curve, though single readings can be large or run the other way. The list shows a part of the results.

Assay: Primary qHTS assay for Inhibitors of ovarian cancer metastasis using an organotypic tumor microenvironment (TME) model. Further: nearly all actives have a fitted effect of over 65% in size.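 On activity change, negative = inhibition: plate controls were DMSO wells for no effect and tomatine positive control wells for full effect.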
Details: SKOV3ip1-GFP adhesion/invasion on 3D omental model, fluorescence; series mostly up to 45.8 µM; activity change, negative = inhibition: at the top concentration
Outline: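 Primary human omental fibroblast/mesothelial 3D culture pre-formed 48 h. SKOV3ip1-GFP cells added with compounds (0.36-46 umol/L), incubated 2 h RT/16 h 37 C, fixed; GFP cells quantified at 488/509 nm.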

Activity change, negative = inhibition, inactive:
CCN1CCN(c2csc3ccc(C)cc3c2=O)CC1 2%, CCCCNC(=O)c1nn(-c2ccc(C)cc2)c(=O)c2c1c1ccccc1n2C 6.54%, CCOC(=O)c1cnc2ccc(OC)cc2c1NCCc1ccc(OC)c(OC)c1 6.28%, Cn1c(SCC(=O)N2CCCc3ccccc32)ncc(C(=O)Nc2ccc(F)cc2)c1=O -22.2%, CNc1c(NC(=O)c2cc(OC)cc(OC)c2)c(=O)oc2ccccc12 -40.5%, CSc1nc(Nc2cccc(C)c2)c(C#N)c(-c2ccccc2)n1 -5.51%, COc1cc(NC(=O)c2ccc(-c3nc(COc4ccccc4)c(C)o3)cc2)cc(OC)c1 -8.19%, CCCCN(Cc1ccccc1)S(=O)(=O)c1cc(Br)cc2c1N(C(=O)C1CC1)CC2 6.46%, CCOC(=O)C1=C[C@@H](OC(CC)CC)[C@H](NC(C)=O)[C@@H](N)C1 -14.4%, CCC12CN3CC(C)(CN(C1)C3c1ccccc1C)C2=O (stereo unspecified) 1.14%, Cc1ccccc1-c1nc2cc(NC(=O)c3cccc(OCCC(C)C)c3)ccc2o1 1.04%, COc1ccc2c(c1)c1c(c(=O)n(-c3ccc(C)cc3)c(=O)n1CC(=O)N1CCCC1)n2C -0.404%, CCOc1ccc(OCC)c(NC(=O)c2cc(CN3CCOCC3)on2)c1 0.177%, CCC(Cn1nnc2ccccc2c1=O)NC(=O)Nc1ccc(C)cc1 (stereo unspecified) -10.1%, O=C(CSc1nnc(CNC(=O)c2ccccc2F)n1-c1ccccc1)Nc1ccccc1F -3.03%, CCCNC(=O)CCn1nc(-c2ccccc2)c2ccccc2c1=O 2.69%, O=C(CCc1nnc2n(Cc3ccccc3Cl)c(=O)c3ccccc3n12)Nc1ccc(F)cc1 0.0328%, O=C(Nc1ccccc1Cl)c1cc(S(=O)(=O)N2CCC3(CC2)OCCO3)ccc1F 0.898%, O=C(NCCS(=O)(=O)N1CCN(c2ccccc2F)CC1)C(c1ccccc1)c1ccccc1 7.99%, COc1cc(C2C(=O)N(C3CCCCCC3)CC(=O)N2CCC2=CCCCC2)ccc1OC(C)C (stereo unspecified) -5.78%, Cc1ccc(NC(=O)CCNS(=O)(=O)c2ccc(Br)s2)cc1 0.313%, CCOc1ccc(N(CC)S(=O)(=O)N2CCCC(C(=O)Nc3ccc(OC)c(OC)c3)C2)cc1 (stereo unspecified) -8.86%, CCOc1ccc(-n2c(=O)c3sc4ccccc4c3n(Cc3cccc(C)c3)c2=O)cc1 -9.62%, COc1ccc(C2C(=O)N(C3CCCCC3)CC(=O)N2CCC2=CCCCC2)cc1 (stereo unspecified) -4.03%, O=C(NC1(C(F)(F)F)C(=O)Nc2c1c(=O)[nH]c(=O)n2-c1ccc(F)cc1)c1ccccc1 (stereo unspecified) -7.53%, Cc1cccc(N2CCN(C(=O)CCc3c(C)nc4c(c3C)c(=O)n(C)c(=O)n4C)CC2)c1C -10.5%, CCc1ccc(NS(=O)(=O)c2ccc3[nH]cc(C(=O)NCCc4cccc(C)c4)c(=O)c3c2)cc1 -15.4%, COc1ccc(-n2cc(C(=O)OCc3ccc(F)c(F)c3)c3ccccc3c2=O)cc1 -2.02%, Clc1ccc(-c2cn3ncsc3n2)cc1 3.23%, CCN1CCN(c2oc(/C=C/c3ccc(OC)c(OC)c3)nc2C#N)CC1 -2.52%, COc1ccc2c(c1)sc1ncc(C(=O)NCc3ccc(Cl)cc3)c(=O)n12 -2.96%, CCOc1ccc(CCNC(=O)Cn2ncn3c(cc4sc(C)cc43)c2=O)cc1OCC -9.47%, O=c1c2cccnc2n(Cc2ccccc2F)c(=O)n1Cc1ccc(F)cc1 -1.31%, CCCCN1C(=O)c2[nH]nc(-c3ccccc3O)c2C1c1cc(Br)c(O)c(OC)c1 (stereo unspecified) -5.16%, Cc1ccc(CN2CCSc3ccc(C(=O)N4CCN(c5ccc(Cl)cc5)CC4)cc32)cc1 3.31%, COc1ccccc1NC(=O)c1cc(S(=O)(=O)NCCc2ccccc2)ccc1F -1.93%, COc1cccc(CNC(=O)c2ccc3nc(N4CCCCC4)sc3c2)c1OC -0.568%, CCOCCCNC(=O)C(c1ccc(OC)cc1)N(Cc1ccc2c(c1)OCO2)C(=O)c1ccc(NC(C)=O)cc1 (stereo unspecified) 4.71%, O=S(=O)(Nc1ccc2nc(-c3ccc(F)cc3)oc2c1)c1ccccc1 -9.24%, Cc1ccc(NC(=O)c2cc(S(=O)(=O)N3CCCCC3)c[nH]2)cc1N(C)C 8.4%, CC(=O)Nc1cc(C(=O)NCc2ccccc2Cl)ccc1Sc1ccc(F)cc1 0.843%, CCOc1ccc2nc(N3CCN(C(=O)c4ccc5c(c4)CCCC5)CC3)sc2c1 -1.07%, CCc1ccc(NC(=O)C2CCN(c3nc(-c4ccc(OC)cc4)no3)CC2)cc1 0.94%, COc1ccc(CCNCc2c(C(=O)O)c(C)n(Cc3c(F)cccc3Cl)c2C)cc1OC 0.182%, Cc1cc(OCC(=O)Nc2ccc(C(=O)OC3CCCCC3)cc2)cc(C)c1Cl -20.3%, COc1ccc2c(c1)CC(C(=O)NCc1ccc(F)cc1)CO2 (stereo unspecified) 19.3%

outcome, inactive:
Cc1cccc(CNC(=O)c2cccc(NC(=O)N3CCSc4ncccc43)c2)c1, CCOC(=O)N1CCC(NC(=O)c2ccc3c(c2)N(Cc2ccccc2)C(=O)c2ccccc2S3=O)CC1 (stereo unspecified), CCOc1ccc(-n2ccn3c(CC(C)CC(=O)O)nnc3c2=O)cc1 (stereo unspecified), Cc1ccc(S(=O)(=O)c2cnc(SC(C)C(=O)Nc3ccccc3)[nH]c2=O)cc1 (stereo unspecified), CC(=O)C1=C(c2ccc(Cl)c(Cl)c2)N(C(C)=O)n2c(nnc2C2CCCCC2)S1, CCn1cc2nc(SCc3ccccc3Cl)n(CCc3ccccc3)c(=O)c2n1, Cc1ccc(-c2nc(NC(=O)CSc3ncnc4sc5c(c34)CCC(C)C5)ns2)cc1 (stereo unspecified), O=C(NCc1ccccc1)C(=O)NCC(c1ccc2c(c1)OCO2)N1CCOCC1 (stereo unspecified), CC1CCC(NC(=O)c2ccc3c(c2)N(Cc2ccccc2F)C(=O)c2ccccc2S3=O)CC1 (stereo unspecified), COc1cccc(CNC(=O)C(NS(=O)(=O)c2cccs2)C(C)C)c1 (stereo unspecified), CCCCc1nn2c(=O)cc(COC(=O)c3ccc(NC(=O)c4ccccc4Cl)cc3)nc2s1, COc1ccc(NC(=O)Cn2c3ncccc3c(=O)n2-c2ccc(C)c(C)c2)c(OC)c1, Cc1cc(C)cc(NC(=O)c2cc(S(=O)(=O)NCCC3=CCCCC3)ccc2F)c1, Cc1ccc2[nH]c(=O)c3cc(C(=O)N(C)c4ccc(Br)cc4)sc3c2c1, Cc1nnc(NC(=O)CSc2nc3c([nH]c4ccccc43)c(=O)n2-c2ccc(Cl)cc2)s1
